{
  "source": "the RNAGym collection of RNA variant scans (doi:10.7554/elife.90254)",
  "parents": {"B1": {"name": "LINE1-full (parent)", "chain": "UACGUAGGUGGUUUUCCCCUGAUAGUGCUAAGGGGGCCUGGAAGUUUGGACUGGGCAGAGCUCAACACAGCGUGGCAAAGUGGCUGUGGCUAGACUGCCUCUCUGGAUUCCUCGUCACUCAGCAGGGCAUCUCUGAGAGAAAUGCC"}},
  "note": "Read counts are not given, so values of variants with three or more changes are uncertain.",
  "data": [
    {"variants_of": "B1", "test": "self-cleavage, relative activity (ratio to wild type); higher = more cleavage; in vitro, sequencing; the parent is a self-cleaving ribozyme", "values": [
      {"variant": "UACGUAGGUGGUUUUCCCCUGAUAGUGCUAAGGUGGCCCGGAAGUUUGGACUGGGCAGAGCUCAACACUGCGUGGCAAAGUGGCUGUGGCUAGACUGCCUCUCUGGAUUCCUCGUCACUCAGCAGGGCAUCUCUGAGAGAAAUGCC", "note": "[G34U U39C A69U]", "self-cleavage": 0.05},
      {"variant": "UACGUAGGUGGUUUUCCCCUGAUAGUGCUAAGGGAGCCUGGAAGCUUGGACUGGGCAGAGCUCAACACAGCGUGGCAAAGUGGCCGUGGCUAGACUGCCUCUCUGGAUUCCUCGUCACUCAGCAGGGCAUCUCUGAGAGAGAUGCC", "note": "[G35A U45C U85C A141G]", "self-cleavage": 0},
      {"variant": "UACGUAGGUGGUUUUCCCCUGAUAGUGCUAAGGGAGCCUGGAAGUUUGGACUGGGCAGAGCUCAACACAGCGAGGCAAAGUGGCUGUGGCUAGUCUGCCUCUCUGGAUUCCUCGUCACUCAGCAGGGCAUCUCUGAGAGAAAUGCU", "note": "[G35A U73A A94U C146U]", "self-cleavage": 0.17},
      {"variant": "UACGUAGGUGGUUUUCCCCUGAUAGUGCUAAGGGAACCUGGAAGUUUGGACUGGGCGGAGCUCAACACAGCGUGGCAAAGUGGCUGUGGCUAGACUGCCUCUCUGGAUUCCUCGCCACUCAGCAGGGCAUCUCUGAGGGAAAUGCC", "note": "[G35A G36A A57G U115C A138G]", "self-cleavage": 1.11},
      {"variant": "UACGUAGGUGGUUUUCCCCUGAUAGUGCUAAGGUGGCCUGGAAGCUUGGACUGGGCAGAGCUCAACACAGCGUGGCAAAGUGGCUGUGGCUAGACUGCCUCUCUGGAUUCCUCGUCACUCAGCGGGGCAUCUCUGAGAGAAAUGCC", "note": "[G34U U45C A124G]", "self-cleavage": 1.1},
      {"variant": "UACGUAGGUGGUUUUCCCCUGAUAGUGCUAAGGGAGCCUGGAAGUUUGGACUGGGCAGAGCUCAACACAGCGUGGCAAAGUGGCUGUGGCUAGACUGCCACUCUGGAUUCCUCGUCACUCAGCGGGGCAUCUCUGAGAGAAAUGCC", "note": "[G35A U100A A124G]", "self-cleavage": 0.56},
      {"variant": "UACGUAGGUGGUUUUCCCCUGAUAGUGCUAAGGGAGCCUGGAAGUUUGGACCGGGCAGAGCUCAACACAGCGUGGCAAAGUGGCUGUGGCUAGACCGCCUCUCUGGAUUCCUCGUCACUCAGCAGGGCAUCUCUGAGAGAAAUGCC", "note": "[G35A U52C U96C]", "self-cleavage": 0.03},
      {"variant": "UACGUAGGUGGUUUUCCCCUGAUAGUGCUAAGGUGGCCUGGAAGUUUGGACUGGGCAGAGCUCAACACAGCGUGGCAAAAUGGCUGUGGCUAGACUGCCUCUCUGGAUUCCUCGUCACUCAGCAGGGCACCUCUGAGAGAAAUGCC", "note": "[G34U G80A U130C]", "self-cleavage": 1.88},
      {"variant": "UACGUAGGUGGUUUUCCCCUGAUAGUGCUAAGGGAGCCUGGAAGUUUGGACUGGGCAGAGCUCAGCACAGCGUGGCAAAGUGGCUGUGGCUAGACUGCCUCUCUGGAUUCCUCGCCACUCAGCCGGGCAUCUCUGAGAGAAAUGCC", "note": "[G35A A65G U115C A124C]", "self-cleavage": 0},
      {"variant": "UACGUAGGUGGUUUUCCCCUGAUAGUGCUAAGGGAGCCUGGAAGUUUGGACUGGGCAGAGCUCAACACAGCGUGGCAAGGCGGCUGUGGCUAGACUGCCUCUCUGGAUUCCUCGCCACUCAGCAGGGCAUCUCUGAGAGAAAUGCC", "note": "[G35A A79G U81C U115C]", "self-cleavage": 0.88},
      {"variant": "UACGUAGGUGGUUUUCCCCUGAUAGUGCUAAGGUGACCUGGAAGUUUGGACUGGGCAGAGCUCAACACAGCGUGGCAAAGUGGCUGUGGCUAGACUGCCUCUCUGGAUUCCUCGUCACUCAGCAGGGCAUCUCUGAGCGAAAUGCC", "note": "[G34U G36A A138C]", "self-cleavage": 0.96},
      {"variant": "UACGUAGGUGGUUUUCCCCUGAUAGUGCUAAGGGAGCCUGGAAGUUUGGACUGGGCAGAGCUCAACACAGCGUGGCAAAGUGGCUGUGGCUAGACUGCCUCUCUGGAUUCCUCGUCACUCAGCAGGGCAUAUCUGAGAGGAAUGCC", "note": "[G35A C131A A140G]", "self-cleavage": 1.53},
      {"variant": "UACGUAGGUGGUUUUCCCCUGAUAGUGCUAAGGUGGCCAGGAAGUUUGGACUGGGCAGAGCUCAGCACAGCGUGGCAAAGUGGCUGUGGCUAGACUGCCUCUCUGGAUUCCUCGUCACUCAGCAGGGCAUCUCUGAGAGAAAUGCC", "note": "[G34U U39A A65G]", "self-cleavage": 0.03},
      {"variant": "UACGUAGGUGGUUUUCCCCUGAUAGUGCUAAGGGAGCCUGGAAGUUUGGACUGGGCAGAGCUCAACACAGCGUGGCAAAGUGGCUGUGGCUAGACUGCCUCUCUGGAUUCCUCGUCACUCAGCUGGGCAUCUCUGAGAGAUAUGCC", "note": "[G35A A124U A141U]", "self-cleavage": 1.32},
      {"variant": "UACGUAGGUGGUUUUCCCCUGAUAGUGCUAAGGGAGCCUGGAAGUUUGGACUGGGCAGAGCACAACACAGCGUGGCAAAGUGGCUGUGGCUAGACUGCCUCUCUGGAUUUCUCGUCACUCAGCAGGGCAUCUCUGAGUGAAAUGCC", "note": "[G35A U62A C110U A138U]", "self-cleavage": 0.01},
      {"variant": "UACGUAGGUGGUUUUCCCCUGAUAGUGCUAAGGGAGCCUGGAAGUUUGGACUGGGCAGAGCUCAACACAGCGUGGCAAAGUGGCUGUGGCUAGGCUGCCUCUCUGGAUUCCCCGUCACUCAGCAGGGCAUCUCUGAGAGAAAUGCC", "note": "[G35A A94G U112C]", "self-cleavage": 0.18},
      {"variant": "UACGUAGGUGGUUUUCCCCUGAUAGUGCUAAGGUGGCCUGGAAGUUUGGACUGGGCAGAGCUCAACACAGCGUGGCAAAGUGGCUGUGGCUAGACUGCCGCUCUGGAUUCCUCGUCACUCAGCAGGGCAUCUCUGGGAGAAAUGCC", "note": "[G34U U100G A136G]", "self-cleavage": 1.27},
      {"variant": "UACGUAGGUGGUUUUCCCCUGAUAGUGCUAAGGGAGCCUGGAAGCUUGGACUGGGCAGAGCUCAACACGGUGUGGCAAAGUGGCUGUGGCUAGACUGCCUCUCUGGAUUCCUCGUCACUCAGCAGGGCAUCUCUGAGAGAAAUGCC", "note": "[G35A U45C A69G C71U]", "self-cleavage": 0.08},
      {"variant": "UACGUAGGUGGUUUUCCCCUGAUAGUGCUAAGGUGGCCUGGAAGUUUGGACUGGGCAGAGCUCAACACAGCGUGGCAAAGUGGCUGUGGCUAGACUGCCUCUCUAGAUUCCUCGUCACUCUGCAGGGCAUCUCUGAGGGAAAUGCC", "note": "[G34U G105A A121U A138G]", "self-cleavage": 0}
    ]}
  ]
}
